Measurements from PubChem BioAssay AID540317 (National Center for Advancing Translational Sciences (NCATS), 2011).
Screen size: about 390,000 compounds; about 2,200 (0.56%) were called active. Inconclusive results, whose numbers are uncertain, are shown with a selection of clear calls. Calls come from the whole dose curve; as a rule, active = well fitted inhibition curve with a large enough effect; inconclusive = small, poorly fitted or top-dose-only effect; inactive = no such curve, though single readings can be large or run the other way. A potency beside an inconclusive call is a rough fit, not a confirmed value.

What follows are molecules tested against Chromobox protein homolog 1 (Homo sapiens) (UniProt P83916) (assay: HTS for Inhibitors of HP1-beta Chromodomain Interactions with Methylated Histone Tails). Conditions: AlphaScreen HP1-beta / biotin-H3K9me3 peptide binding; series mostly up to 114 µM; activity change, negative = inhibition: at the top concentration.
Chain of UniProt P83916 (P83916 whole entry, looked up): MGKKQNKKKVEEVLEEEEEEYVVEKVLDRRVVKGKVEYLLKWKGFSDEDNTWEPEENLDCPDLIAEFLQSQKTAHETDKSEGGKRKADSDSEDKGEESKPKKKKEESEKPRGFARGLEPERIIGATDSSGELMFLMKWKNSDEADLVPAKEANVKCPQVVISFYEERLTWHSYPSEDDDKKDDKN
How it was run: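 AlphaScreen: HP1-beta (50 nM) preformed 30 min with biotin-H3(1-18)K9me3 peptide (50 nM) in PBS pH 7.4, 0.01% Tween-20. Compound added for 30 min at RT, then streptavidin donor/nickel chelate acceptor beads (10 ug/mL) for 30 min.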
Note: nearly all actives have a fitted effect of over 70% in size.
Potency is the fitted concentration of half-maximal effect; tags give direction and shape of the fitted curve.

How did the Potency turn out when `COc1ccc(C(=S)N2CCOCC2)cc1OC(=O)c1ccc([N+](=O)[O-])cc1[N+](=O)[O-]` was run?
The Potency was inconclusive: 44.7 µM [inhibitor, partial curve].

Which Potency does the source give for `Cc1sc2nc(COC(=O)c3ccc(N4CCCC4)c([N+](=O)[O-])c3)[nH]c(=O)c2c1C` here?
Its Potency is inconclusive: 25.1 µM [inhibitor, partial curve, poor fit].

Which “activity change, negative = inhibition” value does the source give for `O=C1N=C(N2CCCCC2)SC1=C1CCCCC1` here?
The value was inactive: 36%.

Which “activity change, negative = inhibition” value does the source give for `N#Cc1cccc(C(c2nnnn2C2CCCC2)N2CCCCCC2)c1` (stereo unspecified) here?
The value was inactive: 57%.

`Cc1ccc(NC(=O)c2cc(-c3ccc(C)o3)nc3ccccc23)nc1` was tested. Which Potency did it give?
Its Potency is inconclusive: 50.1 µM [inhibitor, partial curve, poor fit].

`COc1ccc(C2=C/C(=C\c3ccc(OC(C)=O)cc3)C(=O)O2)cc1` was tested. Which “activity change, negative = inhibition” value did it give?
Its value is inactive: 74.6%.

Which Potency does the source give for `OC(CN1c2ccccc2Sc2ccccc21)Cn1nnc2ccccc21` (stereo unspecified) here?
Its Potency is inconclusive: 28.2 µM [inhibitor, partial curve, poor fit].

With `CCOC(=O)CSC1=C(C#N)C(=O)NC(c2ccc(OC)c(OC)c2)S1` (stereo unspecified) as the molecule, how does the Potency read?
The Potency was inconclusive: 79.4 µM [inhibitor, single point].

With `CC(C)(C)Cc1nnc(NC(=O)CCC2CCCCC2)s1` as the molecule, how does the Potency read?
The Potency was inconclusive: 44.7 µM [inhibitor, partial curve].

Which “activity change, negative = inhibition” value does the source give for `CC(C)C(=O)NCCc1c[nH]c2ccccc12` here?
Its value is inactive: 34.6%.

`O=S(=O)(Nc1ccc(-c2ccc(N3CCCCC3)nn2)cc1)c1ccc(OC(F)(F)F)cc1` was tested. Which “activity change, negative = inhibition” value did it give?
Its value is inactive: -6.37% [at 57 µM].

Which “activity change, negative = inhibition” value does the source give for `Cc1cc(Cl)cc(Br)c1OCCNCC(C)O` (stereo unspecified) here?
The value was inactive: 32.7%.

With `COc1ccc(/C=N/NC(=O)c2ccc(O)cc2)cc1CN1CCCc2ccccc21` as the molecule, how does the Potency read?
Its Potency is inconclusive: 31.6 µM [inhibitor, partial curve, poor fit].

`CC(=O)C1=C(C)N(CC2CC2)C(=O)N[C@H]1c1ccc(Br)cc1` was tested. Which “activity change, negative = inhibition” value did it give?
The value was inactive: 34.1%.

For `CC(/C=N/n1c(-c2cccnc2)n[nH]c1=S)=C\c1ccco1`, which “activity change, negative = inhibition” value is on record?
The value was inactive: -32.7%.

Which Potency does the source give for `CCN1C(=O)/C(=C\C=C\c2ccccc2[N+](=O)[O-])SC1=S` here?
The Potency was inconclusive: 7.94 µM [inhibitor, partial curve].

`O=C(CN1C(=O)S/C(=C\c2ccc(Cl)cc2)C1=O)NC1C=CS(=O)(=O)C1` (stereo unspecified) was tested. Which “activity change, negative = inhibition” value did it give?
Its value is inactive: -0.172%.

Which Potency does the source give for `COc1ccc(Cl)cc1-n1c(C)cc(C(=O)OCC(=O)N2CC(=O)Nc3ccccc32)c1C` here?
Its Potency is inconclusive: 39.8 µM [inhibitor, single point].

For `CCC(c1nnnn1Cc1ccco1)N(Cc1cc2cc(C)cc(C)c2[nH]c1=O)CC1CCCO1` (stereo unspecified), which Potency is on record?
Its Potency is inconclusive: 5.62 µM [inhibitor, full curve, poor fit].

For `CC(C)(C)c1ccccc1OCCOCCNCc1ccccc1`, which Potency is on record?
The Potency was inconclusive: 7.08 µM [inhibitor, partial curve, poor fit].

Which Potency does the source give for `COc1ccc(OCc2ccc(-c3nc(C#N)c(N4CCN(C)CC4)o3)o2)cc1` here?
The Potency was inconclusive: 31.6 µM [inhibitor, partial curve].

With `CC(C)(C)c1ccc(OCc2ccc(C(=O)N/N=C/c3ccc(O)c(O)c3)cc2)cc1` as the molecule, how does the Potency read?
The Potency was inconclusive: 50.1 µM [inhibitor, partial curve, poor fit].

For `CCN1CCn2c3c(c4cc(C)ccc42)CCCC31` (stereo unspecified), which Potency is on record?
Its Potency is inconclusive: 50.1 µM [inhibitor, partial curve, poor fit].

How did the Potency turn out when `Cn1c(=O)n(Cc2ccccc2Cl)c2ccccc21` was run?
The Potency was inconclusive: 10 µM [inhibitor, full curve].

For `Cc1ccc(S(=O)(=O)N(CC(=O)N/N=C/c2cccc3c2OCCO3)c2ccccc2F)cc1`, which Potency is on record?
The Potency was inconclusive: 70.8 µM [inhibitor, partial curve].

How did the “activity change, negative = inhibition” value turn out when `CCOc1ccc(NC(=O)/C=C/c2ccccc2)c([N+](=O)[O-])c1` was run?
Its value is inactive: -10.4%.

`O=C(O)C(Cc1c[nH]c2ccccc12)NS(=O)(=O)c1ccc(Br)cc1` (stereo unspecified) was tested. Which Potency did it give?
Its Potency is inconclusive: 89.1 µM [inhibitor, partial curve, poor fit].

With `O=[N+]([O-])c1ccccc1/C=N/N1CCN(c2ccc(Cl)cc2)CC1` as the molecule, how does the Potency read?
The Potency was inconclusive: 17.8 µM [inhibitor, full curve].

Which Potency does the source give for `CCCOc1ccc(/C=C/C(=O)Nc2sc(C)c(C)c2C(=O)OCC)cc1OC` here?
Its Potency is inconclusive: 11.2 µM [inhibitor, partial curve, poor fit].

For `CCOC(=O)C1CCN(C(=O)c2ccccc2NC(=O)c2ccc(Cl)cc2)CC1`, which Potency is on record?
Its Potency is inconclusive: 25.1 µM [inhibitor, single point].

How did the “activity change, negative = inhibition” value turn out when `CCCOc1ccc(N2C(=O)CC(N3CCC(O)(c4cccc(C(F)(F)F)c4)CC3)C2=O)cc1` (stereo unspecified) was run?
The value was inactive: 37.1%.

With `CC(=O)N1c2ccc(S(=O)(=O)N3CCC(C(=O)N4CCCC(C)C4)CC3)cc2CC1C` (stereo unspecified) as the molecule, how does the “activity change, negative = inhibition” value read?
Its value is inactive: 47.9%.

For `Cc1cc(C)c(OCC(O)CN2CCN(C(=O)c3ccccc3)CC2)c(C)c1` (stereo unspecified), which Potency is on record?
The Potency was inconclusive: 17.8 µM [inhibitor, full curve].

For `O=C(OCCNC(=O)c1ccc2ccccc2n1)c1ccc(F)cc1`, which “activity change, negative = inhibition” value is on record?
The value was inactive: 39.8%.

How did the Potency turn out when `O=C(/C=C/c1ccc(Br)o1)NC(c1ccccc1)c1ccccc1` was run?
Its Potency is inconclusive: 50.1 µM [inhibitor, partial curve].

For `C#CCOCCOCCOCCNc1nc(N2CCN(C(=O)CCCCCCCCCCNC(=O)[C@H](CCCCN)n3cc(C)nn3)CC2)nc(N2CCN(C(=O)CCCCCCCCCCNC(=O)[C@H](CCCN=C(N)N)n3cc(C[C@@H](C)CC)nn3)CC2)n1`, which Potency is on record?
The Potency was inconclusive: 79.4 µM [inhibitor, single point].

How did the Potency turn out when `CCOc1ccc(CN2CCCN(C)CC2)cc1` was run?
The Potency was inconclusive: 89.1 µM [inhibitor, single point].

How did the Potency turn out when `OCCN1CCN(CC(O)COCCOc2ccc(Br)cc2)CC1` (stereo unspecified) was run?
The Potency was inconclusive: 10 µM [inhibitor, partial curve, poor fit].

For `Cc1ccc(O)c(C(=O)c2cnc3c(c2)COc2ccc(C)cc2-3)c1`, which Potency is on record?
Its Potency is inconclusive: 44.7 µM [inhibitor, partial curve].

Which Potency does the source give for `Cc1ccc(NC(=S)NCc2ccc3[nH]c4c(c3c2)CCCC4)cc1` here?
The Potency was inconclusive: 39.8 µM [inhibitor, partial curve].

`Cc1cccc(NC(=O)CSc2nc(-c3cccs3)nc3cc(=O)[nH]n23)c1` was tested. Which Potency did it give?
Its Potency is inconclusive: 89.1 µM [inhibitor, single point].

For `CC(C)N(C(=O)[C@H]1C[C@H](CC(=O)NC(C)(C)C)C(=O)N2CCc3c([nH]c4cc(-c5ccco5)ccc34)[C@]12C)C(C)C`, which Potency is on record?
Its Potency is inconclusive: 31.6 µM [inhibitor, full curve].

Which Potency does the source give for `COc1ccc(/C=C/C(=O)C23CC4CC(CC(C4)C2)C3)cc1CN1CCOCC1` here?
The Potency was inconclusive: 35.5 µM [inhibitor, partial curve].

For `O=C(O)c1ccccc1NN=Cc1ccccc1`, which “activity change, negative = inhibition” value is on record?
The value was inactive: -1.1%.

`CC(=O)N1CCC(N(CCN2CCOCC2)C(=S)Nc2cc(C)ccc2C)CC1` was tested. Which Potency did it give?
The Potency was inconclusive: 31.6 µM [inhibitor, single point].

How did the Potency turn out when `Fc1cccc(CN2CCSCC2)c1` was run?
Its Potency is inconclusive: 17.8 µM [inhibitor, full curve].

`CCc1ccc(S(=O)(=O)Nc2ccc3c(c2)sc(=O)n3C)cc1` was tested. Which “activity change, negative = inhibition” value did it give?
The value was inactive: 26.3% [at 57 µM].

For `CC1CCN(CCCCOc2ccccc2-c2ccccc2)CC1`, which Potency is on record?
The Potency was inconclusive: 56.2 µM [inhibitor, partial curve, poor fit].

`Cc1ccc(NC(=O)CNCc2ccccc2)cc1Br` was tested. Which Potency did it give?
Its Potency is inconclusive: 79.4 µM [inhibitor, single point].

`Cc1ccc(-c2nc3cccc(C)n3c2Nc2ccc3c(c2)OCCO3)cc1` was tested. Which Potency did it give?
Its Potency is inconclusive: 15.8 µM [inhibitor, full curve, poor fit].

With `O=C(CC(=O)NCc1ccc(Cl)cc1)NCc1ccc(Cl)cc1` as the molecule, how does the “activity change, negative = inhibition” value read?
The value was inactive: 24%.

`CCn1c(SCCN2CCCCC2)nc2c1c(=O)n(C)c(=O)n2C` was tested. Which Potency did it give?
Its Potency is active: 70.8 µM.

Which Potency does the source give for `CC(C)NC(=O)CSc1nnc(-c2ccc(C(C)(C)C)cc2)n1C` here?
Its Potency is inconclusive: 89.1 µM [inhibitor, single point].

`CCN1C(=O)/C(=C\N2CCCCCC2)SC1=S` was tested. Which Potency did it give?
Its Potency is inconclusive: 35.5 µM [inhibitor, single point].

With `Cc1cc(=O)[nH]c2nnc(SCc3ccccc3F)n12` as the molecule, how does the “activity change, negative = inhibition” value read?
The value was inactive: 20.4%.

How did the “activity change, negative = inhibition” value turn out when `COc1ccccc1C(=O)NC(=S)NNC(=O)c1sc2ccccc2c1Cl` was run?
The value was inactive: -24.2%.

With `COc1cc(/C=C2\SC(=S)N(CCC(=O)N3CCCCC3)C2=O)cc(OC)c1OC` as the molecule, how does the Potency read?
The Potency was inconclusive: 56.2 µM [inhibitor, single point].

How did the “activity change, negative = inhibition” value turn out when `Cc1ccc(S(=O)(=O)N2CCN(Cc3cc(=O)n4nc(-c5ccccc5Cl)sc4n3)CC2)cc1` was run?
The value was inactive: 24.5% [at 57 µM].

With `Nc1ccc2c(c1)C(=NO)c1ccccc1-2` as the molecule, how does the Potency read?
The Potency was inconclusive: 7.08 µM [inhibitor, full curve, poor fit].

With `CCc1ccc(-n2nc(CO)c(C(=O)NCc3ccccc3Cl)n2)cc1` as the molecule, how does the “activity change, negative = inhibition” value read?
The value was inactive: 11.1%.

For `CC(NCC(=O)Nc1cc(S(=O)(=O)N2CCCCCC2)ccc1Cl)c1ccccc1` (stereo unspecified), which Potency is on record?
The Potency was inconclusive: 14.1 µM [inhibitor, full curve, poor fit].

`Oc1cccc2c(NC(=S)Nc3ccc(OC(F)F)cc3)cccc12` was tested. Which Potency did it give?
Its Potency is inconclusive: 11.2 µM [inhibitor, full curve].

Which Potency does the source give for `CCOC(=O)/C(C#N)=N/Nc1ccc(S(=O)(=O)N2CCc3ccccc32)cc1` here?
Its Potency is inconclusive: 35.5 µM [inhibitor, single point].

With `C#CCOCCOCCOCCNc1nc(N2CCN(C(=O)CCCCCCCCCCNC(=O)[C@H]([C@@H](C)CC)n3cc(CCCCN=C(N)N)nn3)CC2)nc(N2CCN(C(=O)CCCCCCCCCCNC(=O)[C@H](CCCCN)n3cc(C)nn3)CC2)n1` as the molecule, how does the Potency read?
Its Potency is active: 35.5 µM.

With `COc1cccc(C(=O)N2CCN(C(=O)C3CCCO3)CC2)c1` (stereo unspecified) as the molecule, how does the “activity change, negative = inhibition” value read?
The value was inactive: 33%.

How did the Potency turn out when `NC(=O)CCN1CCN(CCOC2Cc3cc(Cl)ccc3Sc3ccccc32)CC1` (stereo unspecified) was run?
The Potency was inconclusive: 35.5 µM [inhibitor, single point].
